Laboratory results: PMC5645086, “Analysis of the interaction of Plexin-B1 and Plexin-B2 with Rnd family proteins” (PLoS ONE, 2017)
Numbering of substitutions follows the chain as printed. Results are given in words; binding and its absence hold for the method and conditions named. Some results given as binding are weak or reduced against the parent protein; the word gives no strength.

By UniProt entry, the sequences of proteins in these tests, tags left out. Residues count along the entry.
UniProt O43157, residues 1746-1851: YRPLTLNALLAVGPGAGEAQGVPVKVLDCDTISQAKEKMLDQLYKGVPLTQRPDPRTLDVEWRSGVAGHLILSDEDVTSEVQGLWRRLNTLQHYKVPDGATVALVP

B1: Plexin-B2-RBD (Rho-binding domain of Plexin-B2, residues 1452-1562) (domain or fragment, UniProt O15031 1452-1562, looked up)
chain: GLLGDDVEYAPLTVSVIVQDEGVDAIPVKVLNCDTISQVKEKIIDQVYRGQPCSCWPRPDSVVLEWRPGSTAQILSDLDLTSQREGRWKRVNTLMHYNVRDGATLILSKVG
notes: Vector pETDuet-1; tag removed with TEV protease; source: E. coli BL21 (DE3), purified (Nickel-NTA, TEV cleavage; in some cases ion exchange or size exclusion chromatography); not shown: His6, N-terminal, cleaved

Legend:
[1] = molecular target: T1, Rnd3-L90R (GTP-binding domain, residues 16-200) (UniProt P61587); assay: condition: typically 400–600 μM Plexin-B1-RBD in the syringe, 40–60 μM Rnd3 protein in the cell; ITC; Plexin-B-RBD (400-600 uM, syringe) titrated into Rnd protein (40-60 uM, cell); 25°C; buffer 2: 50 mM sodium phosphate pH 7.0, 150 mM NaCl, 4 mM MgCl2, 3 mM DTT; independent binding sites model; both purified
T1 sequence: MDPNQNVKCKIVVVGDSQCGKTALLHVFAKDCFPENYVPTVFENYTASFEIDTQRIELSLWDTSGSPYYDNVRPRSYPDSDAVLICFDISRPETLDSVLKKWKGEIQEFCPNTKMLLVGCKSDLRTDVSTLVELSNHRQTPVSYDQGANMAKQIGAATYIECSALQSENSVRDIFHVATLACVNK

[2] = molecular target: T2, Rnd3-V87R (GTP-binding domain, residues 16-200) (UniProt P61587); assay: as above
T2 sequence: T1 sequence with V72R, R75L

[3] = molecular target: T3, Rnd1 GTP-binding domain (residues 1-191) (UniProt Q92730); assay: SEC; Superdex75 10/300, 4°C; 1:1 molar mixture, 100 uM of each protein; 50 mM sodium phosphate pH 7.0, 150 mM NaCl, 4 mM MgCl2, 3 mM DTT; size estimated from elution volume against the proteins alone; both purified
T3 sequence: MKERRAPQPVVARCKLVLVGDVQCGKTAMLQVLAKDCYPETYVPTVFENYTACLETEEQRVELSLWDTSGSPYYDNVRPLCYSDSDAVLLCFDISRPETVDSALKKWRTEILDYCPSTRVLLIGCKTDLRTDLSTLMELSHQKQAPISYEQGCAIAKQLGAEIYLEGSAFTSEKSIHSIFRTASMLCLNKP

[4] = molecular target: T4, Rnd2 GTP-binding domain (residues 2-184) (UniProt P52198); assay: as above
T4 sequence: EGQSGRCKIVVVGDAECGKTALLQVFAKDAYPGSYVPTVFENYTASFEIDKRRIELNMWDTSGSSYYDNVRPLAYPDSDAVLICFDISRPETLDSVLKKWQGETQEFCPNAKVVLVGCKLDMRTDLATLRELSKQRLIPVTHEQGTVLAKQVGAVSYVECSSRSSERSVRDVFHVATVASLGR

[5] = molecular target: T5, Rnd3 GTP-binding domain (residues 16-200), wild type (UniProt P61587); assay: as above
T5 sequence: T1 sequence with R75L

[6] = molecular target: T1, Rnd3-L90R (GTP-binding domain, residues 16-200); assay: condition: typically 400–600 μM Plexin-B2-RBD in the syringe, 40–60 μM Rnd3 protein in the cell; ITC; Plexin-B-RBD (400-600 uM, syringe) titrated into Rnd protein (40-60 uM, cell); 25°C; buffer 2: 50 mM sodium phosphate pH 7.0, 150 mM NaCl, 4 mM MgCl2, 3 mM DTT; independent binding sites model; both purified
[7] = molecular target: T2, Rnd3-V87R (GTP-binding domain, residues 16-200); assay: as above

Row | Molecule | binding [1] | binding [2] | binding [3] | binding [4] | binding [5] | binding [6] | binding [7]
1 | Plexin-B1-RBD (Rho-binding domain of Plexin-B1, residues 1746-1851), histidine-tagged (from UniProt O43157 1746-1851) (domain or fragment) | no binding | no binding | – | – | – | – | –
2 | B1 | – | – | binds | binds | binds | no binding | no binding
